From PubChem BioAssay AID1347417 (National Center for Advancing Translational Sciences (NCATS), 2020)
Out of some 120,000 compounds screened, about 5,300 (4.4%) were called active. This list was built around the results that the source calls inconclusive (neither active nor inactive); the mix of calls is not that of the screen. The call rests on the fitted dose curve; in most records, active means well fitted inhibition curve with a large enough effect; inconclusive means small, poorly fitted or top-dose-only effect; inactive means no such curve, though single readings can be large or run the other way. Potencies of inconclusive entries are doubtful fits and often do not repeat.
Potency means the concentration at half of the fitted maximal effect; tags describe the fitted curve by direction and shape.

Experiment: qHTS Primary assay for Inhibitors of Plasmodium falciparum Dd2 growth in vitro; further: nearly all actives have a fitted effect of over 65% in size
Conditions: P. falciparum Dd2 growth, SYBR Green, 72 h; series mostly up to 28.9 µM
How it was run: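 Readout: SYBR Green fluorescence, 485 nm excitation, 535 nm emission, after ~16 h lysis at 37C. Before that, Dd2-infected red cells (2.5% hematocrit) grew 72 h with compound, 29 uM top final concentration.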
In the case of `Cc1nn(-c2ccc(F)cc2)c(Oc2ccccc2F)c1CCC(=O)NC(C)C`, the Potency is reported as “inactive”. In the case of `COc1cccc(-c2cc(C3CCN(C(=O)Nc4cccc(F)c4)CC3)[nH]n2)c1`, the Potency is reported as inconclusive: 8.91 µM [inhibitor, single point]. In the case of `COCCN1CC(CO)C2(CCN(Cc3cc(F)ccc3F)CC2)C1` (configuration not stated), the Potency is reported as inconclusive: 17.8 µM [inhibitor, single point]. For `O=C(c1ccccc1)N1CCC(N(Cc2cccnc2)C2CCOCC2)CC1`, the Potency was inconclusive: 0.199 µM [inhibitor, full curve]. In the case of `COc1ccccc1N1CCN(c2ncc3c(n2)CCN(Cc2ccc(C)s2)C3)CC1`, the Potency is reported as “inactive”. For `Cc1ccc(-c2noc([C@@H]3CCCN3C(=O)c3cc(F)ccc3Cl)n2)cc1`, the Potency was inconclusive: 8.91 µM [inhibitor, partial curve, poor fit]. For `O=C(N[C@@H]1CN(Cc2ccccc2)C[C@H]1CO)c1cccnc1`, the Potency was “inactive”. With `Cc1cccc(CC(=O)N2CCCC(n3cc(-c4nc(-c5ccccc5)no4)nn3)C2)c1` (configuration not stated) the Potency was inconclusive: 1.12 µM [inhibitor, full curve]. In the case of `COCCOCc1nc(C2CCCCN2C(=O)NCc2ccc(F)cc2)no1` (configuration not stated), the Potency is reported as “inactive”. In the case of `CCC(C)n1c(SCc2ccc(F)cc2Cl)nc2ccsc2c1=O` (configuration not stated), the Potency is reported as inconclusive: 11.2 µM [inhibitor, single point]. In the case of `COc1cccc(C(=O)NC(C(=O)N2CCCCC2)C2CCN(C(=O)c3ccc(Cl)cc3)CC2)c1` (configuration not stated), the Potency is reported as inconclusive: 0.891 µM [inhibitor, partial curve, poor fit]. With `O=C1COc2ccc(-c3ccc(Cl)cc3)nc2CN1Cc1ccccc1` the Potency was inconclusive: 0.562 µM [inhibitor, full curve, poor fit]. With `Cc1ccccc1C(=O)Nc1sc2c(c1C(=O)N1CCCCC1)CCC(C(C)(C)C)C2` (configuration not stated) the Potency was active: 5.62 µM. For `COc1ccc(S(=O)(=O)NC[C@H]2C[C@@H]3CCN2C[C@@H]3CN2CCc3ccccc32)cc1`, the Potency was active: 11.2 µM. With `COc1ccc(C(=O)NCCC2CCN(C(=O)Nc3ccc(C)cc3)CC2)cc1` the Potency was inconclusive: 5.62 µM [inhibitor, partial curve]. In the case of `COCCNC(=O)[C@@H]1C[C@H](Oc2ccccc2)CN1C(=O)c1ccc2ncccc2c1`, the Potency is reported as “inactive”. With `C=C[C@H]1CN2CC[C@H]1C[C@@H]2CNC(=O)N1CCOCC1` the Potency was “inactive”. With `CCN(CC)C(=O)Cn1cc(SCC(=O)Nc2cc(OC)ccc2OC)c2ccccc21` the Potency was inconclusive: 20 µM [inhibitor, single point]. In the case of `O=c1ccc(-c2ccccc2F)c2n1C[C@H]1C[C@@H]2CN(Cc2ccc(CO)o2)C1`, the Potency is reported as inconclusive: 11.2 µM [inhibitor, partial curve, poor fit]. With `Cc1cc(NC(=O)Cn2ccn3nc(-c4ccccc4)c(CO)c3c2=O)no1` the Potency was inconclusive: 17.8 µM [inhibitor, single point]. For `CCOCCCn1c(SCC(=O)Nc2ccc(F)cc2)nc2c(sc3ccccc32)c1=O`, the Potency was inconclusive: 3.55 µM [inhibitor, full curve]. In the case of `O=C(NC1CCCCC1)C1CCCN(c2cnn(Cc3ccccc3)c(=O)c2)C1` (configuration not stated), the Potency is reported as inconclusive: 11.2 µM [inhibitor, single point]. For `Fc1ccc(CN2CCn3c(nnc3-c3ccc(Cl)cc3)C2)cc1`, the Potency was inconclusive: 12.6 µM [inhibitor, single point]. For `COc1cc(NC(=O)Cn2c(-c3ccc(Cl)cc3)nc(C)c(CCO)c2=O)cc(OC)c1`, the Potency was inconclusive: 12.6 µM [inhibitor, single point]. In the case of `COCc1nc(-c2ccc(OC3CCN(C(=O)c4nn(C)c5ccccc45)C3)cc2)no1` (configuration not stated), the Potency is reported as inconclusive: 0.447 µM [inhibitor, partial curve, poor fit]. In the case of `Cc1cn2nc(C(=O)Nc3ccc(F)cc3C)cc2c(N(C)Cc2ccccc2)n1`, the Potency is reported as inconclusive: 1.12 µM [inhibitor, partial curve, poor fit]. For `CC(C)N1C[C@@H]2OCC(=O)N(CC3CC3)[C@@H]2C1`, the Potency was “inactive”. With `COCCN1CC(CO)C2(CCN(Cc3cccs3)CC2)C1` (configuration not stated) the Potency was inconclusive: 10 µM [inhibitor, single point]. In the case of `COc1cccc(NC(=O)[C@@H]2C[C@H](c3ccc(F)cc3)N([S+](=O)([O-])C3CC3)C2)c1`, the Potency is reported as inconclusive: 4.47 µM [inhibitor, full curve, poor fit]. For `O=C(c1ccc(CN2C(=O)NC3(CCOCC3)C2=O)cc1)N1CCc2ccccc2C1`, the Potency was inconclusive: 7.08 µM [inhibitor, partial curve, poor fit]. With `O[C@@H]1CCN(c2nccc(C3(c4ccccc4Cl)CCNCC3)n2)C1` the Potency was “inactive”. In the case of `CCCCOC(=O)c1ccc(NC(=O)c2ccc3c(c2)CCCN3S(C)(=O)=O)cc1`, the Potency is reported as inconclusive: 11.2 µM [inhibitor, partial curve]. In the case of `O=C(CN1C(=O)NC2(CCCCC2)C1=O)Nc1cc(F)ccc1F`, the Potency is reported as “inactive”. With `Cc1nn(-c2ccccc2)c(C)c1CN1CCCCC12Cc1ccccc1CNC2=O` (configuration not stated) the Potency was inconclusive: 15.8 µM [inhibitor, partial curve, poor fit]. With `Fc1ccc(CNc2nc(-c3ccc(Cl)cc3)cc(C(F)(F)F)n2)cc1` the Potency was inconclusive: 10 µM [inhibitor, single point]. For `CCOCCCNC(=O)[C@H]1CCC[C@H]1NC(=O)c1ccc(OC)nc1`, the Potency was “inactive”. In the case of `CC1=C(C(=O)OC(C)C)C(c2ccccc2Cl)CC(=O)N1Cc1c(F)cccc1F` (configuration not stated), the Potency is reported as inconclusive: 1 µM [inhibitor, full curve, poor fit]. In the case of `CCc1ccccc1-n1c(SCC(=O)Nc2ccc(C)cc2)nc2n[nH]c(C)c2c1=N`, the Potency is reported as inconclusive: 8.91 µM [inhibitor, single point]. For `CCNC(=O)c1cccnc1OC1CCN(C(=O)c2ccco2)C1` (configuration not stated), the Potency was “inactive”. For `CNC(=O)[C@@H]1CCCC[C@@H]1c1nc(-c2ccncc2)nn1CCO`, the Potency was “inactive”. With `O=C(NCCc1ccccc1)C(=O)NCC(c1cccnc1)N1CCN(c2ccccc2)CC1` (configuration not stated) the Potency was inconclusive: 12.6 µM [inhibitor, single point]. In the case of `O=C(Cn1cc(S(=O)(=O)N2CCN(c3ccccc3F)CC2)c2ccccc2c1=O)Nc1cccc(C(F)(F)F)c1`, the Potency is reported as inconclusive: 17.8 µM [inhibitor, single point].
